Measurements published in PubChem BioAssay AID485294 (National Center for Advancing Translational Sciences (NCATS), 2010).
About 150 (0.041%) of roughly 370,000 compounds were called active. Inconclusive results, whose numbers are uncertain, are shown with a selection of clear calls. Calls follow the shape of the dose curve; as a rule, active = well fitted inhibition curve with a large enough effect; inconclusive = small, poorly fitted or top-dose-only effect; inactive = flat fitted curve, though single readings scatter. Potencies of inconclusive entries are left out as doubtful fits.

Target: Beta-lactamase (Escherichia coli (strain K12)) (UniProt P00811)
Chain of UniProt P00811 (P00811 whole entry, looked up): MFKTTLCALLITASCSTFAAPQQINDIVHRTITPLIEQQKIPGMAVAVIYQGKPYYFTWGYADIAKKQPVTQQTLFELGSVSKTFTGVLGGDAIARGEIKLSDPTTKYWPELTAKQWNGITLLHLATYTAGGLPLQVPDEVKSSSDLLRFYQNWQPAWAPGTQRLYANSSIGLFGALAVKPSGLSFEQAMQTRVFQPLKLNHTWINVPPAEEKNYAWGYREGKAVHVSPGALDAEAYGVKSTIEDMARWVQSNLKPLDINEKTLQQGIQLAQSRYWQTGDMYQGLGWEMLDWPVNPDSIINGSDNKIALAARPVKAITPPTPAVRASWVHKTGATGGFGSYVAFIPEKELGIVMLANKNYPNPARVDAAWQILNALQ
Assay: qHTS Inhibitors of AmpC Beta-Lactamase (assay with detergent); also: nearly all actives have a fitted effect of over 25% in size
Details: AmpC hydrolysis of nitrocefin, absorbance 480 nm, 0.01% Triton; series mostly up to 114 µM
In short: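 AmpC (5.3 nM in the dispensed reagent) in 20 mM phosphate pH 7.0 with 0.01% (detergent screen) or 0.0001% Triton X-100 was preincubated with compounds for 15 min at room temperature. Nitrocefin was then added from an 800 uM solution, and hydrolysis was followed at 480 nm.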
Potency is read from the fitted curve at half-maximal effect; tags tell the direction and shape of the fitted curve.

Row | Structure (SMILES) | Potency
1 | CC(c1ccccc1)C1C(C#N)=C(N)SC(N)=C1C#N (centres undefined) | inconclusive [inhibitor, full curve, poor fit]
2 | CC(CNC(=O)CCC(=O)N1CCOc2ccccc21)c1ccccc1 (centres undefined) | inconclusive [inhibitor, single point]
3 | Cc1nc(C(=O)NCCCO)cc2c1[nH]c1ccccc12 | inconclusive [inhibitor, single point]
4 | COc1ccc(NC(=O)/C=C/c2cccc(C(F)(F)F)c2)cn1 | inactive
5 | CCOC(=O)c1sc2nc(C3CC3)cc(-c3ccc(F)cc3)c2c1N | inconclusive [inhibitor, single point]
6 | CCn1cc(C(=O)NCc2ccccc2)c2ccccc21 | inconclusive [inhibitor, single point]
7 | CCN(Cc1cnn(C)c1)C(=O)c1cc(COc2cc(C)c(Cl)c(C)c2)on1 | inactive
8 | COc1ccc(C(CNC(=O)c2cccc(NS(=O)(=O)c3ccc(C)c(F)c3)c2)N2CCOCC2)cc1 (centres undefined) | inconclusive [inhibitor, single point]
9 | CCC(Sc1nnnn1C)C(=O)Nc1ccc(C(C)=O)cc1 (centres undefined) | inactive
10 | CN(C)c1ccc(C(=O)OCC(=O)Nc2ccc(S(N)(=O)=O)cc2)cc1 | inconclusive [inhibitor, partial curve]
11 | COC(=O)c1ccccc1NC(=O)C1CC(c2ccc(F)cc2)=NO1 (centres undefined) | inconclusive [inhibitor, partial curve, poor fit]
12 | C/C(=N\Nc1cc(N2CCOCC2)nc(C)n1)c1ccc(F)cc1 | inconclusive [inhibitor, full curve, poor fit]
13 | CCC1CCCCN1CCNC(=O)CCS(=O)(=O)c1ccc(Br)cc1 (centres undefined) | inconclusive [inhibitor, full curve, poor fit]
14 | Cc1ccc(C(NC(=O)N2CC(C)OC(C)C2)C(Cl)Cl)cc1F (centres undefined) | inconclusive [inhibitor, full curve, poor fit]
15 | COc1ccc(NC(=O)CN2C(=O)CCc3cc(S(=O)(=O)N4CCOCC4)ccc32)cc1Cl | inactive
16 | CC(=O)c1c(O)cc(O)c(C(C)=O)c1O | inactive
17 | O=C(Nc1ccc2c(c1)OCO2)c1c(F)c(F)c(F)c(F)c1F | inconclusive [inhibitor, full curve, poor fit]
18 | COc1ccc(C(=O)COC(=O)c2ccc(-n3cnnn3)cc2)c(OC)c1 | inconclusive [inhibitor, full curve, poor fit]
19 | Cc1nn(CCCC(=O)Nc2cccc(F)c2)c(=O)c2c1sc1ccccc12 | inactive
